23 molecules from the supplement of paper PMC4604168 (melanoma cell lines) can be followed below.

This is one part of the list. Most values come without repeats; read them as rough.

Among the test systems are WM115; WM1716; WM1745; WM3526; WM3619; WM451Lu.
Common to all, as to assay: cell count relative to DMSO control; melanoma cells; higher = more viable cells
What all share (conditions): library dose: low library concentration; 72 h
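Also: cell number obtained by counting DAPI-stained nuclei in high-throughput microscope images with image analysis software, screen run in 1,536-well plates.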

Consider `Cc1cc(Nc2cc(N3CCN(C)CC3)nc(Sc3ccc(NC(=O)C4CC4)cc3)n2)n[nH]1` [Tozasertib] + O=C(/C=C/c1cccnc1)NCCCCC1CCN(C(=O)c2ccccc2)CC1 [FK866] (first compound 0.006 µM, partner dose 0.01 µM), for which the cell count in the assay on WM115 came to 84.7%; with WM1716, 76.4%; with WM1745, 88%; in the assay on WM3526 it was 76.1%; in the assay on WM3619, 86.5%; in the assay on WM451Lu, 106%.
Consider `Cc1cc(Nc2cc(N3CCN(C)CC3)nc(Sc3ccc(NC(=O)C4CC4)cc3)n2)n[nH]1` [Tozasertib] + CN(NC(=O)CC(=O)NN(C)C(=S)c1ccccc1)C(=S)c1ccccc1 [STA4783] (first compound 0.006 µM, partner dose 0.006 µM), for which the cell count turned out to be 74.7% in the assay with WM115; 56.6% in the assay with WM1716; 55.6% with WM1745; 98.9% with WM3526; 69.3% with WM3619; 96.4% in the assay with WM451Lu.
Regarding `N#CC[C@H](C1CCCC1)n1cc(-c2ncnc3[nH]ccc23)cn1` [ruxolitinib] + CCc1ccc(CCOc2ccc(CC3SC(=O)NC3=O)cc2)nc1 [pioglitazone] (first compound 1 µM, partner dose 2 µM), the cell count was determined as 126% with WM115; 108% in the assay on WM1716; 91.6% in the assay with WM1745; 94.2% in the assay on WM3526; 91% with WM3619; 101% in the assay with WM451Lu.
Turning to `CC[C@]1(O)C[C@H]2CN(CCc3c([nH]c4ccccc34)[C@@](C(=O)OC)(c3cc4c(cc3OC)N(C=O)[C@H]3[C@@](O)(C(=O)OC)[C@H](OC(C)=O)[C@]5(CC)C=CCN6CC[C@]43[C@@H]65)C2)C1` [vincristine] + O=C(Nc1ccccc1)c1cc([N+](=O)[O-])ccc1Cl [GW9662] (first compound 0.0001 µM, partner dose 2 µM), the cell count with WM115 worked out at 59.9%; with WM1716, 49.3%; in the assay on WM1745 it was 89.1%; with WM3526, 59.3%; in the assay on WM3619 it was 56.9%; in the assay with WM451Lu, 44%.
Consider `CC[C@]1(O)C[C@H]2CN(CCc3c([nH]c4ccccc34)[C@@](C(=O)OC)(c3cc4c(cc3OC)N(C=O)[C@H]3[C@@](O)(C(=O)OC)[C@H](OC(C)=O)[C@]5(CC)C=CCN6CC[C@]43[C@@H]65)C2)C1` [vincristine] + CC(C)C[C@H](NC(=O)[C@H](Cc1ccccc1)NC(=O)c1cnccn1)B(O)O [Bortezomib] (first compound 0.0001 µM, partner dose 0.001 µM), for which the cell count with WM115 amounted to 56.2%; with WM1716, 29.4%; with WM1745 it was 64.5%; in the assay on WM3526 it was 72.1%; in the assay on WM3619, 28.1%; in the assay with WM451Lu it was 48.5%.
With `Cc1cc(Nc2cc(N3CCN(C)CC3)nc(Sc3ccc(NC(=O)C4CC4)cc3)n2)n[nH]1` [Tozasertib] + OCCn1cc(-c2cnc3nnn(Cc4ccc5ncccc5c4)c3n2)cn1 [PF04217903] (first compound 0.006 µM, partner dose 1 µM), the cell count worked out at 91% in the assay with WM115; 102% with WM1716; 90.6% with WM1745; 94.5% in the assay on WM3526; 78.5% in the assay on WM3619; 113% in the assay on WM451Lu.
For the molecule `N#CC[C@H](C1CCCC1)n1cc(-c2ncnc3[nH]ccc23)cn1` [ruxolitinib] + Cc1cc(N2CCOCC2)cc2[nH]c(-c3c(NC[C@@H](O)c4cccc(Cl)c4)cc[nH]c3=O)nc12 [BMS536924] (first compound 1 µM, partner dose 0.2 µM), the cell count was found to be 112% in the assay on WM115; 100% in the assay on WM1716; 71% in the assay with WM1745; 103% with WM3526; 85.6% in the assay with WM3619; 76.1% in the assay with WM451Lu.
Regarding `N#CC[C@H](C1CCCC1)n1cc(-c2ncnc3[nH]ccc23)cn1` [ruxolitinib] + Clc1ccc(Nc2nnc(Cc3ccncc3)c3ccccc23)cc1 [vatalanib] (first compound 1 µM, partner dose 2 µM), the cell count in the assay on WM115 amounted to 113%; with WM1716, 92.9%; in the assay with WM1745, 88.1%; in the assay with WM3526 it was 116%; in the assay on WM3619 it was 93.9%; in the assay on WM451Lu, 84.6%.
Consider `Cc1cc(Nc2cc(N3CCN(C)CC3)nc(Sc3ccc(NC(=O)C4CC4)cc3)n2)n[nH]1` [Tozasertib] + O=S(=O)(c1ccccc1)N(CC(F)(F)F)c1ccc(C(O)(C(F)(F)F)C(F)(F)F)cc1 [T0901317] (first compound 0.006 µM, partner dose 1.4 µM), for which the cell count in the assay on WM115 was found to be 87.8%; in the assay with WM1716 it was 82.4%; with WM1745 it was 80.5%; with WM3526 it was 76.3%; in the assay on WM3619, 64%; with WM451Lu it was 72.5%.
Consider `N#CC[C@H](C1CCCC1)n1cc(-c2ncnc3[nH]ccc23)cn1` [ruxolitinib] + COc1ccc2c(c1)CCC1C2CCC2(C)C(NCCCCCCN3C(=O)C=CC3=O)CCC12 [U73122] (first compound 1 µM, partner dose 0.4 µM), for which the cell count in the assay on WM115 came out at 108%; with WM1716 it was 95.5%; in the assay on WM1745, 96%; in the assay on WM3526 it was 61.6%; with WM3619, 94.1%; in the assay on WM451Lu, 105%.
Take `N#CC[C@H](C1CCCC1)n1cc(-c2ncnc3[nH]ccc23)cn1` [ruxolitinib] + Nc1ncn([C@H]2C[C@H](O)[C@@H](CO)O2)c(=O)n1 [decitabine] (first compound 1 µM, partner dose 0.1 µM): the cell count with WM115 was 84.8%; in the assay with WM1716, 81.1%; with WM1745, 86%; with WM3526 it was 98.8%; with WM3619, 105%; with WM451Lu, 91.8%.
As for `Cc1cc(Nc2cc(N3CCN(C)CC3)nc(Sc3ccc(NC(=O)C4CC4)cc3)n2)n[nH]1` [Tozasertib] + C=C(c1ccc(C(=O)O)cc1)c1cc2c(cc1C)C(C)(C)CCC2(C)C [Bexarotene] (first compound 0.006 µM, partner dose 2 µM), the cell count in the assay on WM115 is 85.5%; in the assay with WM1716, 67.6%; with WM1745, 98.7%; in the assay on WM3526 it was 88%; in the assay with WM3619 it was 82.1%; in the assay with WM451Lu, 83.9%.
`CC[C@]1(O)C[C@H]2CN(CCc3c([nH]c4ccccc34)[C@@](C(=O)OC)(c3cc4c(cc3OC)N(C=O)[C@H]3[C@@](O)(C(=O)OC)[C@H](OC(C)=O)[C@]5(CC)C=CCN6CC[C@]43[C@@H]65)C2)C1` [vincristine] + CC1(C)NC(=O)N(c2ccc([N+](=O)[O-])c(C(F)(F)F)c2)C1=O [nilutamide] (first compound 0.0001 µM, partner dose 1 µM): the cell count was 42.1% in the assay on WM115; 44.4% in the assay with WM1716; 103% in the assay on WM1745; 56.4% in the assay with WM3526; 68.3% in the assay with WM3619; 56.1% in the assay with WM451Lu.
For `Cc1cc(Nc2cc(N3CCN(C)CC3)nc(Sc3ccc(NC(=O)C4CC4)cc3)n2)n[nH]1` [Tozasertib] + O=C(O)[C@@H]1[O][Sb](=[O])([O][Sb]2(=[O])[O][C@H]([C@H](O)CO)[C@H](O)[C@H](C(=O)O)[O]2)[O][C@H]([C@H](O)CO)[C@@H]1O [stibogluconate] (first compound 0.006 µM, partner dose 2 µM), the cell count came to 106% in the assay with WM115; 97% in the assay with WM1716; 86.3% in the assay with WM1745; 93.4% in the assay with WM3526; 89.6% with WM3619; 111% with WM451Lu.
As to `N#CC[C@H](C1CCCC1)n1cc(-c2ncnc3[nH]ccc23)cn1` [ruxolitinib] + CS(=O)(=O)CCNCc1ccc(-c2ccc3ncnc(Nc4ccc(OCc5cccc(F)c5)c(Cl)c4)c3c2)o1 [lapatinib] (first compound 1 µM, partner dose 0.8 µM), the cell count with WM115 came to 123%; with WM1716, 104%; in the assay with WM1745, 111%; in the assay with WM3526 it was 116%; in the assay with WM3619, 93.2%; in the assay on WM451Lu it was 74.8%.
On to `N#CC[C@H](C1CCCC1)n1cc(-c2ncnc3[nH]ccc23)cn1` [ruxolitinib] + O=C(/C=C/c1cccnc1)NCCCCC1CCN(C(=O)c2ccccc2)CC1 [FK866] (first compound 1 µM, partner dose 0.01 µM), for which the cell count in the assay with WM115 was found to be 103%; in the assay with WM1716, 100%; in the assay on WM1745, 104%; in the assay with WM3526, 124%; in the assay on WM3619 it was 91.7%; in the assay on WM451Lu, 112%.
Take `CC[C@]1(O)C[C@H]2CN(CCc3c([nH]c4ccccc34)[C@@](C(=O)OC)(c3cc4c(cc3OC)N(C=O)[C@H]3[C@@](O)(C(=O)OC)[C@H](OC(C)=O)[C@]5(CC)C=CCN6CC[C@]43[C@@H]65)C2)C1` [vincristine] + CCCS(=O)(=O)Nc1ccc(F)c(C(=O)c2c[nH]c3ncc(Cl)cc23)c1F [PLX4720] (first compound 0.0001 µM, partner dose 0.08 µM): the cell count with WM115 was 49.1%; with WM1716, 47.3%; with WM1745, 101%; in the assay on WM3526 it was 62.5%; in the assay on WM3619 it was 52%; in the assay on WM451Lu, 61.5%.
Consider `N#CC[C@H](C1CCCC1)n1cc(-c2ncnc3[nH]ccc23)cn1` [ruxolitinib] + COc1cc([C@@H]2c3cc4c(cc3[C@@H](O[C@@H]3O[C@@H]5CO[C@@H](C)O[C@H]5[C@H](O)[C@H]3O)[C@H]3COC(=O)[C@H]23)OCO4)cc(OC)c1O [etoposide] (first compound 1 µM, partner dose 0.02 µM), for which the cell count came out at 104% in the assay on WM115; 97.5% with WM1716; 106% in the assay with WM1745; 120% in the assay on WM3526; 109% in the assay on WM3619; 101% in the assay with WM451Lu.
Take `N#CC[C@H](C1CCCC1)n1cc(-c2ncnc3[nH]ccc23)cn1` [ruxolitinib] + Cc1ccc(NC(=O)c2cccc(N(C)C)c2)cc1NC(=O)c1ccc(O)cc1 [ZM336372] (first compound 1 µM, partner dose 2 µM): the cell count with WM115 was 109%; in the assay on WM1716, 108%; in the assay with WM1745 it was 87.4%; in the assay on WM3526, 102%; in the assay on WM3619, 98.3%; with WM451Lu it was 86.2%.
For `Cc1cc(Nc2cc(N3CCN(C)CC3)nc(Sc3ccc(NC(=O)C4CC4)cc3)n2)n[nH]1` [Tozasertib] + C[C@]1(O)C[C@@H](c2nc(-c3ccc4ccc(-c5ccccc5)nc4c3)c3c(N)nccn32)C1 [OSI906] (first compound 0.006 µM, partner dose 0.4 µM), the cell count with WM115 was 90.6%; in the assay on WM1716, 75.8%; in the assay with WM1745, 85.7%; in the assay on WM3526 it was 90.6%; with WM3619, 97.1%; in the assay with WM451Lu, 90.9%.
For `Cc1cc(Nc2cc(N3CCN(C)CC3)nc(Sc3ccc(NC(=O)C4CC4)cc3)n2)n[nH]1` [Tozasertib] + O=C(CCCCCCC(=O)Nc1ccccc1)NO [vorinostat] (first compound 0.006 µM, partner dose 0.08 µM), the cell count in the assay on WM115 turned out to be 86.7%; with WM1716, 101%; in the assay on WM1745, 91.2%; in the assay on WM3526, 83.1%; with WM3619, 86.6%; in the assay on WM451Lu, 70.4%.
As for `Cc1cc(Nc2cc(N3CCN(C)CC3)nc(Sc3ccc(NC(=O)C4CC4)cc3)n2)n[nH]1` [Tozasertib] + NC(=O)Nc1cc(-c2cccc(F)c2)sc1C(=O)N[C@H]1CCCNC1 [AZD7762] (first compound 0.006 µM, partner dose 0.02 µM), the cell count in the assay on WM115 came to 80.2%; in the assay with WM1716, 80.5%; in the assay with WM1745 it was 89.6%; in the assay with WM3526 it was 67.8%; in the assay with WM3619 it was 45.9%; with WM451Lu, 104%.
Take `Cc1cc(Nc2cc(N3CCN(C)CC3)nc(Sc3ccc(NC(=O)C4CC4)cc3)n2)n[nH]1` [Tozasertib] + Nc1ncn([C@H]2C[C@H](O)[C@@H](CO)O2)c(=O)n1 [decitabine] (first compound 0.006 µM, partner dose 0.1 µM): the cell count with WM115 was found to be 78.9%; in the assay with WM1716, 72.4%; with WM1745, 75.3%; in the assay on WM3526 it was 82.1%; in the assay on WM3619, 104%; in the assay with WM451Lu, 78.5%.
